Experimental data published in the supplement of paper PMC4604168 (melanoma cell lines).
The list shows a part of the results. Most values come without repeats; read them as rough.

How the values were obtained:
Experiment in all cases: cell count relative to DMSO control; melanoma cells; higher = more viable cells
Details in all cases: library dose: low library concentration; 72 h
[1] = test system: MZ2-MEL
[2] = test system: MeWo
[3] = test system: RPMI7951
[4] = test system: RVH-421
[5] = test system: SkMel28
[6] = test system: SkMel2
[7] = test system: SkMel30
[8] = test system: SkMel5
[9] = test system: UACC257
[10] = test system: UACC62
[11] = test system: WM115
[12] = test system: WM1716
[13] = test system: WM1745
[14] = test system: WM3526
[15] = test system: WM3619
[16] = test system: WM451Lu
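Further: cell number obtained by counting DAPI-stained nuclei in high-throughput microscope images with image analysis software, screen run in 1,536-well plates.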

Row | SMILES | cell count [1] | cell count [2] | cell count [3] | cell count [4] | cell count [5] | cell count [6] | cell count [7] | cell count [8] | cell count [9] | cell count [10] | cell count [11] | cell count [12] | cell count [13] | cell count [14] | cell count [15] | cell count [16]
1 | C[C@]1(O)C[C@@H](c2nc(-c3ccc4ccc(-c5ccccc5)nc4c3)c3c(N)nccn32)C1 + C=CCn1c(=O)c2cnc(Nc3ccc(N4CCN(C)CC4)cc3)nc2n1-c1cccc(C(C)(C)O)n1 [MK1775] (first compound 0.4 µM, partner dose 0.02 µM) | 95.3% | 85.7% | 110% | 100% | 74.6% | 80.9% | 62.4% | 83.8% | 84.5% | 78% | 84.3% | 97.2% | 45.5% | 70.7% | 88% | 111%
2 | COc1cc([C@@H]2c3cc4c(cc3[C@@H](O[C@@H]3O[C@@H]5CO[C@@H](C)O[C@H]5[C@H](O)[C@H]3O)[C@H]3COC(=O)[C@H]23)OCO4)cc(OC)c1O [etoposide] + Cn1cc(/C=C2\C(=O)Nc3cccnc32)c2ccccc21 [GW441756] (first compound 0.02 µM, partner dose 0.4 µM) | 96% | 91.9% | 96.9% | 106% | 94.6% | 93% | 93.4% | 90.8% | 80.9% | 84.8% | 78.8% | 86.5% | 99.9% | 120% | 89.6% | 97.2%
3 | COc1cc([C@@H]2c3cc4c(cc3[C@@H](O[C@@H]3O[C@@H]5CO[C@@H](C)O[C@H]5[C@H](O)[C@H]3O)[C@H]3COC(=O)[C@H]23)OCO4)cc(OC)c1O [etoposide] + COc1cc(Nc2ncc(F)c(Nc3ccc4c(n3)NC(=O)C(C)(C)O4)n2)cc(OC)c1OC [Tamatinib] (first compound 0.02 µM, partner dose 0.4 µM) | 86.6% | 79% | 89.3% | 77.1% | 77.1% | 85% | 97.3% | 90.4% | 50.4% | 71.2% | 72.9% | 78.1% | 60% | 85.7% | 132% | 97.6%
4 | COc1cc([C@@H]2c3cc4c(cc3[C@@H](O[C@@H]3O[C@@H]5CO[C@@H](C)O[C@H]5[C@H](O)[C@H]3O)[C@H]3COC(=O)[C@H]23)OCO4)cc(OC)c1O [etoposide] + CCN(CC)CCCCNc1ncc2cc(-c3cc(OC)cc(OC)c3)c(NC(=O)NC(C)(C)C)nc2n1 [PD173074] (first compound 0.02 µM, partner dose 0.1 µM) | 107% | 90.9% | 96.4% | 145% | 95.2% | 100% | 95.3% | 94.9% | 74.1% | 92.5% | 77.6% | 92.4% | 93.8% | 120% | 99.4% | 108%
5 | COc1cc([C@@H]2c3cc4c(cc3[C@@H](O[C@@H]3O[C@@H]5CO[C@@H](C)O[C@H]5[C@H](O)[C@H]3O)[C@H]3COC(=O)[C@H]23)OCO4)cc(OC)c1O [etoposide] + N#Cc1c(O)c2c(-c3ccc(-c4ccccc4O)cc3)csc2[nH]c1=O [A769662] (first compound 0.02 µM, partner dose 2 µM) | 92.5% | 94.2% | 102% | 94.8% | 90.5% | 100% | 79.8% | 96.2% | 110% | 84.6% | 91.2% | 88.8% | 109% | 92.3% | 113% | 86.6%
6 | CCN(CC)CCNC(=O)c1c(C)[nH]c(/C=C2\C(=O)Nc3ccc(F)cc32)c1C [sunitinib] + COc1cc(Nc2ncc(F)c(Nc3ccc4c(n3)NC(=O)C(C)(C)O4)n2)cc(OC)c1OC [Tamatinib] (first compound 0.4 µM, partner dose 0.4 µM) | 95% | 92.4% | 94.6% | 115% | 90.6% | 113% | 80.7% | 108% | 92.6% | 86.7% | 90% | 116% | 65.6% | 84.2% | 96.3% | 111%
7 | CCN(CC)CCNC(=O)c1c(C)[nH]c(/C=C2\C(=O)Nc3ccc(F)cc32)c1C [sunitinib] + COc1ccc2c(c1)CCC1C2CCC2(C)C(NCCCCCCN3C(=O)C=CC3=O)CCC12 [U73122] (first compound 0.4 µM, partner dose 0.4 µM) | 112% | 89% | 92% | 129% | 104% | 115% | 88% | 111% | 85.7% | 87.4% | 103% | 127% | 70.8% | 84% | 132% | 86%
8 | Cn1cnc2c(F)c(Nc3ccc(Br)cc3Cl)c(C(=O)NOCCO)cc21 [selumetinib] + Cn1cc(/C=C2\C(=O)Nc3cccnc32)c2ccccc21 [GW441756] (first compound 0.015 µM, partner dose 0.4 µM) | 99.3% | 92.2% | 141% | 96.5% | 73.8% | 91.6% | 74.1% | 84.5% | 66.8% | 63.6% | 85.9% | 113% | 92.9% | 69% | 102% | 96.5%
9 | COc1cc([C@@H]2c3cc4c(cc3[C@@H](O[C@@H]3O[C@@H]5CO[C@@H](C)O[C@H]5[C@H](O)[C@H]3O)[C@H]3COC(=O)[C@H]23)OCO4)cc(OC)c1O [etoposide] + Oc1cc(-c2nc(-c3ccccc3)[nH]c2-c2ccncc2)ccc1Cl [L779450] (first compound 0.02 µM, partner dose 0.2 µM) | 73.6% | 91.5% | 84.8% | 75% | 80% | 83% | 97.9% | 114% | 94.5% | 66.8% | 76.6% | 94.9% | 87.7% | 86.2% | 96.7% | 104%
10 | Cn1cnc2c(F)c(Nc3ccc(Br)cc3Cl)c(C(=O)NOCCO)cc21 [selumetinib] + O=C(Nc1ccccc1)c1cc([N+](=O)[O-])ccc1Cl [GW9662] (first compound 0.015 µM, partner dose 2 µM) | 87.8% | 81.6% | 88.3% | 72.5% | 104% | 69.3% | 63% | 100% | 73.5% | 84.5% | 96.8% | 109% | 89.8% | 56.3% | 66.9% | 100%
11 | C[C@]1(O)C[C@@H](c2nc(-c3ccc4ccc(-c5ccccc5)nc4c3)c3c(N)nccn32)C1 + COc1cc2c(Oc3ccc4[nH]c(C)cc4c3F)ncnc2cc1OCCCN1CCCC1 [cediranib] (first compound 0.4 µM, partner dose 0.4 µM) | 101% | 100% | 133% | 140% | 92.9% | 75.2% | 92.7% | 80.3% | 88.6% | 78.4% | 115% | 119% | 74.9% | 111% | 113% | 54.4%
12 | COc1cc([C@@H]2c3cc4c(cc3[C@@H](O[C@@H]3O[C@@H]5CO[C@@H](C)O[C@H]5[C@H](O)[C@H]3O)[C@H]3COC(=O)[C@H]23)OCO4)cc(OC)c1O [etoposide] + CO[C@@H]1[C@H](N(C)C(=O)c2ccccc2)C[C@H]2O[C@]1(C)n1c3ccccc3c3c4c(c5c6ccccc6n2c5c31)C(=O)NC4 [Midostaurin] (first compound 0.02 µM, partner dose 0.08 µM) | 86.9% | 82.4% | 90.6% | 83.7% | 104% | 84.2% | 130% | 79.9% | 85.9% | 96.3% | 82.9% | 71.8% | 95.3% | 116% | 90.7% | 104%
13 | C[C@]1(O)C[C@@H](c2nc(-c3ccc4ccc(-c5ccccc5)nc4c3)c3c(N)nccn32)C1 + CN(C)S(=O)(=O)c1ccc2c(c1)/C(=C/c1cc3c([nH]1)CCCC3)C(=O)N2 [SU6656] (first compound 0.4 µM, partner dose 0.4 µM) | 93.8% | 90.2% | 82.8% | 78.8% | 80.6% | 84.4% | 65.8% | 72.7% | 83.6% | 86.8% | 71.3% | 101% | 58.5% | 75.1% | 99.2% | 83.4%
14 | C[C@]1(O)C[C@@H](c2nc(-c3ccc4ccc(-c5ccccc5)nc4c3)c3c(N)nccn32)C1 + COc1cc(Nc2ncc(F)c(Nc3ccc4c(n3)NC(=O)C(C)(C)O4)n2)cc(OC)c1OC [Tamatinib] (first compound 0.4 µM, partner dose 0.4 µM) | 79.4% | 81.1% | 89.7% | 90.8% | 71.3% | 72.3% | 71.1% | 69.4% | 53.9% | 72.7% | 87.2% | 93.2% | 48.8% | 59% | 107% | 89.4%
15 | CCN(CC)CCNC(=O)c1c(C)[nH]c(/C=C2\C(=O)Nc3ccc(F)cc32)c1C [sunitinib] + CCc1ccc(CCOc2ccc(CC3SC(=O)NC3=O)cc2)nc1 [pioglitazone] (first compound 0.4 µM, partner dose 2 µM) | 111% | 83% | 110% | 120% | 99.3% | 109% | 72.1% | 100% | 88.2% | 103% | 101% | 141% | 85% | 87.8% | 154% | 103%
16 | C[C@]1(O)C[C@@H](c2nc(-c3ccc4ccc(-c5ccccc5)nc4c3)c3c(N)nccn32)C1 + CCc1ccc(CCOc2ccc(CC3SC(=O)NC3=O)cc2)nc1 [pioglitazone] (first compound 0.4 µM, partner dose 2 µM) | 96.5% | 90.2% | 114% | 74.2% | 96.4% | 79.8% | 88.1% | 93.5% | 88.4% | 72.4% | 99.8% | 100% | 75.7% | 78.6% | 82.8% | 96.8%
17 | COc1cc([C@@H]2c3cc4c(cc3[C@@H](O[C@@H]3O[C@@H]5CO[C@@H](C)O[C@H]5[C@H](O)[C@H]3O)[C@H]3COC(=O)[C@H]23)OCO4)cc(OC)c1O [etoposide] + Cc1cc([N+](=O)[O-])ccc1NS(=O)(=O)c1cc(Cl)ccc1Cl [FH535] (first compound 0.02 µM, partner dose 1 µM) | 98.9% | 96.8% | 89.3% | 101% | 89.8% | 98.9% | 95.8% | 90.4% | 97.6% | 82.8% | 89.2% | 88.2% | 104% | 109% | 93.4% | 108%
